Hit rate of the full screen: of about 220,000 compounds, about 16,000 (7.3%) were called active. Inconclusive means that the source gave no clear call. Such entries were picked first, then a sample of the others. The call rests on the fitted dose curve; in most records, active means well fitted inhibition curve with a large enough effect (not every such curve was filed as active); inconclusive means small, poorly fitted or top-dose-only effect, or another doubt; inactive means no such curve, though single readings can be large or run the other way. Potencies of inconclusive entries are left out as doubtful fits.
target: Aldehyde dehydrogenase 1A1 (Homo sapiens) (UniProt P00352); test: qHTS Assay for Inhibitors of Aldehyde Dehydrogenase 1 (ALDH1A1); conditions: Purified ALDH1A1, NADH fluorescence, propionaldehyde substrate; series mostly up to 75.3 µM
Potency means the concentration at half of the fitted maximal effect; tags describe the fitted curve by direction and shape.

UniProt P00352, sequence (P00352 whole entry, looked up): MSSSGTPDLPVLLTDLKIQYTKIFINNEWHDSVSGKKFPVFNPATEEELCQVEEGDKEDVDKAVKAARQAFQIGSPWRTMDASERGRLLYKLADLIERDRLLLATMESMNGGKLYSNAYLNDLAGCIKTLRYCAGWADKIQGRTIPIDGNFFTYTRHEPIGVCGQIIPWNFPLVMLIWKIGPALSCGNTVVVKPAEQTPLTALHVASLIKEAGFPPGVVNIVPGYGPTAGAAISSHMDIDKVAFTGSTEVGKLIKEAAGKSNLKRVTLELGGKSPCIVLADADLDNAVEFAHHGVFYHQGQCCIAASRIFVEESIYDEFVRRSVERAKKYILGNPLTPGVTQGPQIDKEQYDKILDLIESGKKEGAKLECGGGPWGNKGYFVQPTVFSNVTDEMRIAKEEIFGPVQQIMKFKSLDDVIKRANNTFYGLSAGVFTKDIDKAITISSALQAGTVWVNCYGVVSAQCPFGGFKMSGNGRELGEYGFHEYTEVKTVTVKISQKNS

Row | Compound | Potency
1 | COc1cc2c(C#N)c(N3CCc4ccccc4C3)nc(N)c2c(N)n1 | inconclusive [inhibitor, partial curve]
2 | CC(C)N(CCNCC(O)COc1ccc(C(C)(C)c2ccccc2)cc1)C(C)C (centres undefined) | inconclusive [inhibitor, single point]
3 | Cc1nn(C)cc1-c1n[nH]c(=S)n1-c1ccc(F)cc1 | inactive
4 | CSC1=N/C(=C/c2cccnc2)C(=O)N1Cc1ccccc1 | inconclusive [inhibitor, partial curve]
5 | N#Cc1nc(COc2ccccc2Cl)oc1N1CCCCCC1 | inconclusive [inhibitor, single point]
6 | Cc1cc2cc(CCNC(=O)c3ccc(Br)o3)c(=O)[nH]c2cc1C | inconclusive [inhibitor, partial curve]
7 | CCN1C(=O)c2cccc3cccc1c23 | inconclusive [inhibitor, single point]
8 | CC(C)(C)c1ccc(S(=O)(=O)O/N=C2/CCCCC2c2ccc([N+](=O)[O-])cc2[N+](=O)[O-])cc1 (centres undefined) | active: 5.62 µM
9 | c1csc(-c2nc3ccccc3[nH]2)c1 | inconclusive [inhibitor, partial curve]
10 | CCCNC(=O)COC(=O)c1ccc(N2CCCC2)c([N+](=O)[O-])c1 | inconclusive [inhibitor, partial curve]
11 | CCc1cccc(N(C(=O)c2csnn2)C(C(=O)NC(C)(C)CC)c2ccccn2)c1 (centres undefined) | inconclusive [inhibitor, single point]
12 | Cn1c(N2CCC(C(N)=O)CC2)nc2c1c(=O)n(Cc1cccc(Br)c1)c(=O)n2C | inactive
13 | CN1C=CC=C/C1=C1\SC(=S)N(C2CCCCC2)C1=O | active: 14.1 µM
14 | CCc1cccc(C)c1NC(=O)COC(=O)CNS(=O)(=O)/C=C/c1ccccc1 | inconclusive [inhibitor, partial curve]
15 | COc1ccc(CCN2C(=O)CC(NC34CC5CC(CC(C5)C3)C4)C2=O)cc1OC (centres undefined) | active: 10 µM
16 | COC(=O)N1CCC[C@@]2(CCN(C(=O)Nc3cccc(C#N)c3)C2)C1 | inactive
17 | COc1ccccc1NC(=O)CSc1nnc(-c2ccncc2)o1 | inconclusive [inhibitor, single point]
18 | S=C(NCCc1ccccc1)N1CCn2cccc2C1c1cccnc1 (centres undefined) | inconclusive [inhibitor, partial curve]
19 | Cc1cccc2sc(NNC(=O)c3cc(=O)c4ccccc4o3)nc12 | inactive
20 | Nc1ccc2nc(SCc3ccc([N+](=O)[O-])cc3)sc2c1 | inconclusive [inhibitor, single point]
21 | Fc1ccccc1CSc1nc2ncccc2[nH]1 | active: 22.4 µM
22 | COc1cc(C(C)=O)ccc1Oc1ncnc2c1cnn2-c1ccc(C)c(C)c1 | inconclusive [inhibitor, single point]
23 | COC(=O)c1cc(OC)c(OC)cc1NC(=S)N1CCN(C/C=C/c2ccccc2)CC1 | inconclusive [inhibitor, single point]
24 | Cc1noc(C)c1C(=O)N1CCC2(CCCN(c3ccccc3)C2)CC1 | inactive
25 | COc1ccccc1OCCCC(=O)NCc1ccco1 | inconclusive [inhibitor, single point]

Row | Compound | Potency
26 | CN1CCN(C(=O)c2ccc(CSc3nc4ccncc4n3Cc3ccc(F)cc3)cc2)CC1 | inactive
27 | O=C(CSc1nnc(-c2ccccn2)n1Cc1ccco1)c1ccc(Cl)cc1 | active: 20 µM
28 | CCOc1ccc2nc(NC(=O)CSc3nc(-c4ccccc4)c(C#N)c(=O)[nH]3)sc2c1 | inconclusive [inhibitor, single point]
29 | COc1ccc2c(C)cc(N3CCOCC3)nc2c1 | inconclusive [inhibitor, single point]
30 | CCOC(=O)N1CCN(c2ccc(C(=O)c3ccccc3)cc2F)CC1 | inconclusive [inhibitor, single point]
31 | Cc1ccc(C(=O)N/N=C\c2ccc(Br)o2)o1 | inactive
32 | CCC(C)c1ccc(NC(=O)C2CCCN(c3ncccn3)C2)cc1 (centres undefined) | inconclusive [inhibitor, single point]
33 | CCOC(=O)c1c(-c2ccc(C)o2)csc1NC(=O)COC(=O)c1cccs1 | active: 14.1 µM
34 | CN(C(=O)N1CCN(c2ccccn2)CC1)c1ccccc1 | inactive
35 | O=C(Nc1cccc2nsnc12)c1ccc(-c2cccc(Cl)c2)o1 | inconclusive [inhibitor, single point]
36 | Cc1cccc(Nc2ncnc(N)c2[N+](=O)[O-])n1 | inactive
37 | O=C(C1=C[C@H](C2CCCCC2)C[C@H](OCc2ccc(CO)cc2)O1)N1CCOCC1 | inactive
38 | CCC(=O)N1CCc2cc(S(=O)(=O)NC(Cc3ccccc3)C(=O)Nc3nccs3)ccc21 (centres undefined) | inconclusive [inhibitor, single point]
39 | O=C(CN1C(=O)COc2ccccc21)N(CCCN1CCOCC1)CC1CC=CCC1 (centres undefined) | inconclusive [inhibitor, partial curve]
40 | COc1ccc(/C=C/C(=O)OCC(=O)N2CC(=O)Nc3ccccc32)cc1 | inconclusive [inhibitor, single point]
41 | COc1ccc(N2CCN(C(=O)c3ccc(Cl)c(S(=O)(=O)N4CCCC4)c3)CC2)cc1 | inconclusive [inhibitor, single point]
42 | N#CCC(=O)N/N=C/c1cn(Cc2ccc3ccccc3c2)c2ccccc12 | inconclusive [inhibitor, single point]
43 | O=C(O)c1cc(-c2ccc(-c3ccc(-c4cc(C(=O)O)c5cc(Cl)ccc5n4)cc3)cc2)nc2ccc(Cl)cc12 | inconclusive [inhibitor, partial curve]
44 | CC(C)NC(=O)c1onc(CSc2ccccc2F)c1C(=O)O | inactive
45 | COC(=O)C1=C(C)NC(C)=C(C(=O)OCCN(C)Cc2ccccc2)C1c1cccc([N+](=O)[O-])c1 (centres undefined) | inactive
46 | CN(C)S(=O)(=O)c1ccc(C(=O)N2CCOCC2)cc1 | inactive
47 | Oc1ccccc1/C=N/n1cnn(Cc2ccccc2Cl)c1=S | inconclusive [inhibitor, single point]
48 | CCOC(=O)N1CCN(C(=O)c2cc(OC)cc(OC)c2)CC1 | inconclusive [inhibitor, single point]
49 | CC1(C)CC(=O)c2sc(NC(=O)c3ccccc3)nc2C1 | active: 2.82 µM
50 | Nc1ccc2c3c(cccc13)C(=O)N(c1ccccc1)C2=O | active: 28.2 µM

Row | Compound | Potency
51 | O=C(O)COc1ccccc1/C=C1\SC(=S)N(/N=C/c2ccccc2O)C1=O | inconclusive [inhibitor, partial curve]
52 | Cc1nc2ccccn2c1C(=O)NN | active: 2.24 µM
53 | CCCc1[nH]nc2c1C(c1ccc(O)cc1OCC)C(C#N)=C(N)O2 (centres undefined) | active: 17.8 µM
54 | O=C(COC(=O)c1cc[n+]([O-])cc1)NCCc1ccc(Cl)cc1Cl | inconclusive [inhibitor, partial curve]
55 | C/C(=N\NC(=O)c1cc([N+](=O)[O-])cc([N+](=O)[O-])c1)c1ccco1 | inactive
56 | O=C(CC1CCCCC1)NCc1ccco1 | inactive
57 | Cc1cccnc1NC(=S)NC(=O)/C=C/c1ccco1 | inconclusive [inhibitor, partial curve]
58 | COc1ccc(CN2CN(C3CCCC3)CSC2=S)cc1 | inconclusive [inhibitor, partial curve]
59 | CC1CCCN(c2cc3c(cc2[N+](=O)[O-])C(=O)N(c2ccccc2)C3=O)C1 (centres undefined) | inconclusive [inhibitor, single point]
60 | COc1ccc(-c2nnc(-c3cc4c(ccc5ccccc54)oc3=O)o2)cc1 | inconclusive [inhibitor, single point]
61 | CCCCc1nc2cc(Cl)ccc2o1 | inactive
62 | NS(=O)(=O)c1ccc(N=Nc2nc3[nH]c(=O)[nH]c(=O)c3[nH]2)cc1 | inconclusive [inhibitor, partial curve]
63 | O=C(/C=C/c1ccc(Cl)c([N+](=O)[O-])c1)Nc1cccc(NC(=O)c2ccco2)c1 | inconclusive [inhibitor, partial curve]
64 | COCCn1cnnc1SCC(=O)c1ccc(S(=O)(=O)N2CCCC2)cc1 | inconclusive [inhibitor, partial curve]
65 | O=C(Nc1ccon1)c1ccc(OC2CCCC2)cc1 | inconclusive [inhibitor, single point]
66 | Cc1ccc(NC(=O)C(Nc2ccccc2)c2ccccc2)cc1 (centres undefined) | inactive
67 | C=CCNC(=O)COC(=O)c1ccc(Cl)c(S(=O)(=O)N(Cc2ccccc2)c2ccccc2)c1 | inactive
68 | O=C1c2ccccc2NC2CCCCCN12 (centres undefined) | inconclusive [inhibitor, partial curve]
69 | O=c1c2cc(N3CCOCC3)ccc2[nH]c(=S)n1CCCN1CCCCC1 | inactive
70 | O=C(O)c1cc(-c2cccs2)nn1-c1cccc(Cl)c1 | inactive
71 | CCn1c(SCC(=O)Nc2ccc(C)cc2)nc2nc3c(cc2c1=O)CCCC3 | inconclusive [inhibitor, partial curve]
72 | C=CCn1c(SCC(=O)Nc2nccs2)nnc1-c1ccco1 | inconclusive [inhibitor, single point]
73 | CCOC(=O)C1CCCN(Cc2nc(Cc3ccccc3Cl)no2)C1 (centres undefined) | inactive
74 | Cc1ccc(N/N=C2\CCS(=O)(=O)c3sccc32)cc1 | inconclusive [inhibitor, single point]

Source: PubChem BioAssay AID1030 (National Center for Advancing Translational Sciences (NCATS), 2008)
